Assay results as given in publication PMC7749740.
No constants are given. Whether binding was seen depends on the method and setting. Binding seen in cells or lysates may run through a third protein. Some binding calls cover weakened binding; strength is not graded here. For some of these results: Where a sequence is shown, tags or fusion partners need not be part of it.

The chains behind the UniProt entries cited, without tags or fusion partners. Where a name states a change or a piece, a line headed by the entry shows the natural chain unless it says otherwise.
UniProt P08138: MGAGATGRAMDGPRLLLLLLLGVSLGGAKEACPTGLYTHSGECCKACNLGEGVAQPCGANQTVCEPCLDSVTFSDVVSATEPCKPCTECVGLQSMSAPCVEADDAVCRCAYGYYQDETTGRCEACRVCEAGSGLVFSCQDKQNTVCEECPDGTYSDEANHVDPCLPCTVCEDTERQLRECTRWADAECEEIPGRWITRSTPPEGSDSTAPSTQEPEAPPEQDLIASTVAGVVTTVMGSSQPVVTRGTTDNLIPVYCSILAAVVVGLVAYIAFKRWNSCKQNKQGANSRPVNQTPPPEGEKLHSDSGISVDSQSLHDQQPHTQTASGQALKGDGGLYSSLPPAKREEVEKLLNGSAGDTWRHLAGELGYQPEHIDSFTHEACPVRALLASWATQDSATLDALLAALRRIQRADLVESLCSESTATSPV
UniProt P11142: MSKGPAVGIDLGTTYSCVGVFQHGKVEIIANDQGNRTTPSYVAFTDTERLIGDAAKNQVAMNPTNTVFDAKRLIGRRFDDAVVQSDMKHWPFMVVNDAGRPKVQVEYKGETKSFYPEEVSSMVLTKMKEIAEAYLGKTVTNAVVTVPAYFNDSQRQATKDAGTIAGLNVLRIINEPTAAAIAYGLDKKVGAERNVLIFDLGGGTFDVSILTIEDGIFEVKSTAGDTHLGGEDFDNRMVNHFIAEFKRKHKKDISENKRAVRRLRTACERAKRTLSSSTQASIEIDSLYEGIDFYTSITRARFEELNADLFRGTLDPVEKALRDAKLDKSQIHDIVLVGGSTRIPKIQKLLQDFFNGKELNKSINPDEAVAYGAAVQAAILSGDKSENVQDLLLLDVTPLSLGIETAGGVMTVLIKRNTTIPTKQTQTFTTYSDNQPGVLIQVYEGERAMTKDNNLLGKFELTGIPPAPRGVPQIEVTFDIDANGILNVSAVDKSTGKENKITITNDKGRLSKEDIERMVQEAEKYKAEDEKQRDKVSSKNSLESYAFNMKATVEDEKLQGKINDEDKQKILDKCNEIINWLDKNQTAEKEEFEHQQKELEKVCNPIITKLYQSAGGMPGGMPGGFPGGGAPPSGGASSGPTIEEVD

What was measured:
GST-p73 aa 1–70 (human) [1] = target: T1, GST-p73 aa 1–70 (human) (UniProt O15350); assay: pull-down; 500 ng GST-p73 or fragments (or GST only) on glutathione-Sepharose 4B beads incubated with cell lysates overexpressing Myc-NGFR, 4°C, 4 h; washed with 50 mM Tris/HCl pH 8.0, 0.5% NP-40, 1 mM EDTA, 150 mM NaCl, 10% glycerol; immunoblot with anti-NGFR; only the target purified
T1 sequence: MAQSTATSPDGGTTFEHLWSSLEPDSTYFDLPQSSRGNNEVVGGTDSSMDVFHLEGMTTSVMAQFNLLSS

[2] = target: T2, GST-p73 full-length (WT) (human) (UniProt O15350); assay: as above
T2 sequence: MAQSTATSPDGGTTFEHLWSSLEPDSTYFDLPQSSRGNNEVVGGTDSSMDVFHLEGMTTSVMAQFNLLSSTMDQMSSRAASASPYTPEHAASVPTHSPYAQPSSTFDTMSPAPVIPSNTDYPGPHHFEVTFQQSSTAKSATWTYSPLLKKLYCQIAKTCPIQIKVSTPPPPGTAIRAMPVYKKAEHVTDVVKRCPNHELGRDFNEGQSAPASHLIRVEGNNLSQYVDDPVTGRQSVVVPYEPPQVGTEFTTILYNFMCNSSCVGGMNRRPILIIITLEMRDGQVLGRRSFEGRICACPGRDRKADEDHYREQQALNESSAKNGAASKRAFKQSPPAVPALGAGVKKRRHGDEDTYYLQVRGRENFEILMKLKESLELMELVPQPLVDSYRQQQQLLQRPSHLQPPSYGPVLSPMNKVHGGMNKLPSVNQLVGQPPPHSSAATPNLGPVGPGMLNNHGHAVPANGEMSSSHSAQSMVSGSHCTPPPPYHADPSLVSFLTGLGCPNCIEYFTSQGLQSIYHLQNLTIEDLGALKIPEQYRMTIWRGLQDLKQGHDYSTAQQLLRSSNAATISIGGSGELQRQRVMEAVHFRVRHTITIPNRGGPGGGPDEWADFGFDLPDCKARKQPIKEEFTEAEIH

GST-p73 aa 1–270 (human) [3] = target: T3, GST-p73 aa 1–270 (human) (UniProt O15350); assay: as above
T3 sequence: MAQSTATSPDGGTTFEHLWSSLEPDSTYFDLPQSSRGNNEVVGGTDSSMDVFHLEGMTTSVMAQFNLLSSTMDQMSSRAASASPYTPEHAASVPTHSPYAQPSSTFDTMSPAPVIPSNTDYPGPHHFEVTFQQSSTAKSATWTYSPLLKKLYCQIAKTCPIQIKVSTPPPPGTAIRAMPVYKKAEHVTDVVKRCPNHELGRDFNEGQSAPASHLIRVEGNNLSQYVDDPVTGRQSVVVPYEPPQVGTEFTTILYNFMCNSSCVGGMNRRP

[4] = target: T4, Flag-p73β (Flag-tagged TAp73β) (human) (UniProt O15350); assay: co-IP; MEF p53-/-;MDM2-/- cells transfected with Flag-p73β, GFP-NGFR or both; reciprocal co-IP and immunoblot
T4 sequence: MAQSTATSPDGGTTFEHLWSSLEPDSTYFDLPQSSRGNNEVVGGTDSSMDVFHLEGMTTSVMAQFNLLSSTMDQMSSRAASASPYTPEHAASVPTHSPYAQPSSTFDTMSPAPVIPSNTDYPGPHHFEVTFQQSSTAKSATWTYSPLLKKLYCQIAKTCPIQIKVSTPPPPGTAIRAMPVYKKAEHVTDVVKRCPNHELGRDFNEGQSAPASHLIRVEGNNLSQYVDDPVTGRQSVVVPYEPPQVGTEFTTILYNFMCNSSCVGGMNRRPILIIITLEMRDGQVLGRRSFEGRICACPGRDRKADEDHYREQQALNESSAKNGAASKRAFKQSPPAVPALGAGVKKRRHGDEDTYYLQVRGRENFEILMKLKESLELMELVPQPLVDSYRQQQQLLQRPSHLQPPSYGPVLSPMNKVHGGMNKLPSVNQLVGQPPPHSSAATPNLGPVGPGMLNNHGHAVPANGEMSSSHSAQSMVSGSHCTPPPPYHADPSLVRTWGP

[5] = target: T4, Flag-p73β (Flag-tagged TAp73β) (human); assay: co-IP; H1299 cells co-transfected with Flag-p73β (Flag-p73) and GFP-NGFR or its fragments; reciprocal IP and immunoblot; lysis buffer 50 mM Tris/HCl pH 7.5, 0.5% NP-40, 1 mM EDTA, 150 mM NaCl
[6] = target: T4, Flag-p73β (Flag-tagged TAp73β) (human); assay: co-IP; HCT116 p53-/- cells transfected with Flag-p73β alone or with GFP-NGFR for 30 h; cytoplasmic and nuclear fractions separated, then co-IP and immunoblot
GFP-NGFR (human) [7] = target: GFP-NGFR (human) (UniProt P08138); assay: co-IP; HCT116 p53-/- cells transfected with Flag-p73β (IP anti-Flag) or GFP-NGFR (IP anti-GFP); immunoblot for endogenous HSPA8 and LAMP2a
[8] = target: T4, Flag-p73β (Flag-tagged TAp73β) (human); assay: as above
GST-p73 aa 1–70 (human) [9] = target: T1, GST-p73 aa 1–70 (human); assay: pull-down; GST-p73α or fragments on glutathione-Sepharose 4B beads incubated with cell lysates, 4°C, 4 h; immunoblot for HSPA8 and LAMP2A (Supplementary Figure S4); only the target purified
[10] = target: T2, GST-p73 full-length (WT) (human); assay: as above
GST-p73 aa 1–270 (human) [11] = target: T3, GST-p73 aa 1–270 (human); assay: as above
GFP-NGFR (human) [12] = target: GFP-NGFR (human) (UniProt P08138); assay: co-IP; H1299 cells co-transfected with Flag-p73β (Flag-p73) and GFP-NGFR or its fragments; reciprocal IP and immunoblot; lysis buffer 50 mM Tris/HCl pH 7.5, 0.5% NP-40, 1 mM EDTA, 150 mM NaCl

In the case of “Myc-NGFR (from UniProt P08138 29-427) (receptor)”, the binding (GST-p73 aa 1–70 (human) [1]) is reported as “no binding”, the binding [2] is reported as “binds” and the binding (GST-p73 aa 1–270 (human) [3]) is reported as “binds”.

With “GFP-NGFR (from UniProt P08138 29-427) (receptor)” the binding [4] was “binds”, the binding [5] was “binds” and the binding [6] was “binds”.

In the case of “GFP-NGFR-N (aa 1–272) (from UniProt P08138 29-272) (domain or fragment)”, the binding [5] is reported as “binds”.

For “heat shock 70 kDa protein 8 (HSPA8), endogenous (from UniProt P11142 1-646)”, the binding (GFP-NGFR (human) [7]) was “binds”, the binding [8] was “binds” and the binding (GST-p73 aa 1–70 (human) [9]) was “binds”. For the same molecule, the binding [10] was “binds” and the binding (GST-p73 aa 1–270 (human) [11]) was “binds”.

B1: Flag-p73β (Flag-tagged TAp73β) (protein, UniProt O15350-2 1-499)
chain: T4 sequence
With B1 the binding (GFP-NGFR (human) [12]) was “binds”.
